Among all 310,000 compounds or so, about 11,000 (3.5%) were called active. The inconclusive results got no clear call from the source; some entries with a clear call stand among them for comparison. The call rests on the fitted dose curve; in most records, active means well fitted inhibition curve with a large enough effect; inconclusive means small, poorly fitted or top-dose-only effect, or effect the other way; inactive means flat fitted curve, though single readings scatter. No potency is given beside an inconclusive call; the fits are too rough.
Assay: VP16 counterscreen qHTS for inhibitors of ROR gamma transcriptional activity;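 further: Gal4-VP16 expression switched on by copper sulfate through the metallothionein promoter; nearly all actives have a fitted effect of over 50% in size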
Settings: Drosophila S2 Gal4-VP16 UAS-luciferase, luminescence, 20 h; activity, negative = inhibition: at 53.6 µM (top of the series)
On the % scale 0 is the no-effect control and ±100 the full control effect; potency means the concentration at half of the fitted maximal effect; tags describe the fitted curve by direction and shape.

SMILES	Potency	activity, negative = inhibition
Cc1ccc(N2C(=O)CC(Sc3ncn[nH]3)C2=O)cc1C (stereo unspecified)	inconclusive [inhibitor, single point]	–
CCOP(=O)(OCC)C(NC(=O)Nc1ccc(Cl)c(Cl)c1)C(N)=O (stereo unspecified)	inconclusive [activator, single point]	–
O=C(CCCC(=O)N1CCN(c2cccc(Cl)c2)CC1)c1ccccc1	–	inactive: 1.45%
CCCCn1c(-c2nn(C)c(C)c2Cl)n[nH]c1=S	inconclusive [inhibitor, single point]	–
CCOc1cc2[nH]c(=S)n(Cc3ccc(C(=O)O)cc3)c(=O)c2cc1OCC	–	inactive: -1.01%
c1ccc(-c2noc(-c3ccncc3)n2)nc1	inconclusive [inhibitor, single point]	–
Cc1nc2cc(NC(=O)c3ccc(Cl)cc3)ccc2n1C	inconclusive [inhibitor, single point]	–
CCN(CC)CCNc1nc(-n2nc(C)cc2C)nc2sc3c(c12)CC(C)(C)OC3	inconclusive [inhibitor, single point]	–
Cc1c(Cl)cccc1NC(=O)CCC(=O)N/N=C/c1ccc[nH]1	inconclusive [inhibitor, single point]	–
CCCCn1c(=N)n(CC(=O)C(C)(C)C)c2ccccc21	inconclusive [inhibitor, single point]	–
O=c1c(O)c(-c2ccc3c(c2)OCO3)oc2ccccc12	active: 11.2 µM	–
COc1ccc(CCC(=O)N2CCCSC2=Nc2ccc(C(C)=O)cc2)cc1	–	inactive: -16.3%
COc1ccc(C)cc1NC(=O)C1CCN(S(=O)(=O)c2cccc3cccnc23)CC1	–	inactive: -4.09%
CN1CCN(c2ncc3nc(-c4cn(C)c5ccccc45)c(=O)n(C[C@H]4CCCO4)c3n2)CC1	inconclusive [inhibitor, single point]	–
CCOC(=O)/C=C/C(=O)Nc1ccc(S(=O)(=O)N2CCc3ccccc32)cc1	inconclusive [inhibitor, single point]	–
O=C(/C=C/c1ccc(OC(F)F)cc1)OCC(=O)N1CCN(C(=O)c2ccco2)CC1	–	inactive: 4.42%
Cc1ccc(-c2c(C(=O)N/N=C/c3ccc(C)o3)nnn2-c2nonc2N)cc1	active: 11.2 µM	–
CCOC(=O)c1c(C)cc(O)c(C=O)c1O	inconclusive [inhibitor, single point]	–
CC(NC(=O)COC(=O)c1cc([N+](=O)[O-])ccc1N1CCOCC1)c1ccccc1 (stereo unspecified)	inconclusive [inhibitor, single point]	–
Cc1ccc2oc(C(=O)N3CCN(Cc4ncccc4C)CC3)c(C)c2c1	inconclusive [inhibitor, partial curve]	–
CCN1CNC(=S)N(c2cccc(C)c2C)C1	inconclusive [inhibitor, single point]	–
COc1cccc(CN2CC(C(=O)NCCSc3nnnn3C)CCC2=O)c1 (stereo unspecified)	–	inactive: -12.6%
O=C(NCc1ccc(/C=N\NC(=O)C(=O)Nc2ccccc2Br)o1)C(=O)Nc1ccccc1	inconclusive [inhibitor, partial curve]	–
Cc1ccc(NCc2n[nH]c(=S)n2-c2cccc(Cl)c2)cc1	–	inactive: -27.7%

SMILES	Potency	activity, negative = inhibition
Cc1[nH]c2ccccc2c1CN1CCC(CO)(Cc2ccccc2)CC1	–	inactive: 7.25%
COc1cc(/C=N/Nc2ncc(C(F)(F)F)cc2Cl)cc(OC)c1OC	active: 20 µM	–
CCOC(=O)C1(C)C=C(Nc2ccc(O)cc2)C(=O)N1c1ccc(O)cc1 (stereo unspecified)	inconclusive [inhibitor, single point]	–
CCOC(=O)C1(Cc2ccccc2C)CCCN(C(=O)c2ccc(CSC)o2)C1 (stereo unspecified)	–	inactive: -15.9%
Cc1csc(NC(=O)C(NS(=O)(=O)c2ccc(Br)s2)c2ccccc2)n1 (stereo unspecified)	inconclusive [inhibitor, single point]	–
CCNC(=S)N/N=C/c1ccc(OCC(=O)Nc2ccc(OC)cc2)c(OC)c1	inconclusive [inhibitor, single point]	–
CC(=O)Oc1ccc(C(=O)NCCc2ccccc2)cc1	inconclusive [inhibitor, single point]	–
COc1ccc(C2=NN(c3nc(-c4ccccc4)c(CC(=O)O)s3)C(c3ccco3)C2)cc1 (stereo unspecified)	inconclusive [activator, single point]	–
CCSc1nnc(Cn2c(=O)sc3ccccc32)n1C	–	inactive: -12.4%
N#Cc1c(N)n(CCc2ccc(F)cc2)c2nc3ccccc3nc12	–	inactive: 0.773%
COC(=O)C1=C(C(=O)OC)SC2(S1)C(C(=O)OC)=C(C(=O)OC)SC1=C2c2cc(C)ccc2NC1(C)C	inconclusive [inhibitor, single point]	–
CCOC(=O)CNC(=O)CSc1nnc(COc2ccc(Cl)cc2)n1CC	inconclusive [inhibitor, single point]	–
COc1ccc(CN(C)C(=O)c2[nH]c(C)c(C(C)=O)c2C)cc1F	inconclusive [inhibitor, single point]	–
O=C(COC(=O)c1cnc(Cl)c(Cl)c1)Nc1ccc(S(=O)(=O)N2CCCC2)cc1	–	inactive: -4.93%
COc1ccc(CCN(Cc2ccccn2)C(=S)Nc2cccc(C)c2)cc1OC	–	inactive: -1.45%
CC(C)c1ccc(Nc2nnc(SC3CCOC3=O)s2)cc1 (stereo unspecified)	inconclusive [inhibitor, single point]	–
COc1ccccc1Nc1nc(-c2cccc([N+](=O)[O-])c2)nc2ccccc12	–	inactive: -10.1%
Cc1[nH]n(-c2ccccc2)c(=O)c1N=Nc1cccc(C(=O)O)c1	active: 2.82 µM	–
O=c1cc(CNc2cc(Cl)ccc2Cl)nc2sccn12	inconclusive [activator, single point]	–
Cc1c(/C=N/NC(=O)c2cc(=O)[nH]c(=O)[nH]2)c2ccccn2c1C(=O)c1ccccc1	–	inactive: 9.47%
Cc1ccc(S(=O)(=O)N(C)c2ccc(C(=O)N3CCN(Cc4ccc5c(c4)OCO5)CC3)cc2)cc1	inconclusive [inhibitor, single point]	–
CC(C)c1nc(SCC(=O)Nc2nc3c(s2)CCCC3)c2ccccc2n1	inconclusive [inhibitor, single point]	–
O=C(CCN1CCOCC1)c1ccccc1	–	inactive: -4.2%
CCOC(=O)c1cccc(NC(=O)/C=C/c2ccc([N+](=O)[O-])cc2)c1	inconclusive [inhibitor, full curve, poor fit]	–

SMILES	Potency	activity, negative = inhibition
CN(C)S(=O)(=O)c1ccc(NC(=O)c2ccccn2)cc1	inconclusive [inhibitor, single point]	–
COc1ccc(C2CCCN2C(=S)Nc2cccc(C)c2C)cc1OC (stereo unspecified)	inconclusive [inhibitor, single point]	–
CCC1Oc2ccc(C)cc2N(CC(=O)N(Cc2cccnc2)Cc2ccc(C)o2)C1=O (stereo unspecified)	inconclusive [inhibitor, single point]	–
CCCCCCCCCCCCCCCC(=O)OCC(COP(=O)(O)O)OC(=O)CCCCCCCCCCCCCCC (stereo unspecified)	–	inactive: 8.07%
CN(C)CCCN(C(=O)c1ccc(S(=O)(=O)N2CCc3ccccc32)cc1)c1nc2c(Cl)cccc2s1	inconclusive [inhibitor, single point]	–
Cc1sc2nc(CSc3nc4ccccc4s3)[nH]c(=O)c2c1C	inconclusive [inhibitor, single point]	–
CNC(=S)N/N=C/c1cc(Br)c(OCc2ccncc2)c(OC)c1	inconclusive [inhibitor, single point]	–
COc1ccc(CCNC(=O)COC(=O)Cc2cccc3ccccc23)cc1	inconclusive [inhibitor, single point]	–
CC(=O)O/N=C(/c1nonc1N)N1CCN(c2ccc([N+](=O)[O-])cc2Cl)CC1	inconclusive [inhibitor, partial curve]	–
S=c1[nH]nc(Cc2ccccc2)n1-c1cccc2ccccc12	inconclusive [inhibitor, partial curve, poor fit]	–
C[c-]1[c-](C)[c-](C)[c-](C)[c-]1C.[Fe].c1cc2nccc(N3CCCC3)[c-]2c1 (stereo unspecified)	inactive	–
CCOC(=O)C1(CCCc2ccccc2)CCN(Cc2nccn2CC)CC1	inconclusive [inhibitor, single point]	–
O=C(Nc1nc2ccc(Cl)cc2s1)C1CCCO1 (stereo unspecified)	inconclusive [inhibitor, full curve]	–
CCN(CC)S(=O)(=O)c1ccc2nnn(OCC(=O)Nc3cccc(C#N)c3)c2c1	–	inactive: 5.15%
CCOc1ccc(OCC)c(NC(=O)C2CCCN(c3ncccn3)C2)c1 (stereo unspecified)	–	inactive: 6.58%
Cc1ccc(C)n1-c1ccccc1N	active: 12.6 µM	–
C/C(=N\NC(=O)c1ccoc1C)c1ccccc1O	active: 0.708 µM	–
CC(C)[C@@H]1C(=O)N(S(C)(=O)=O)[C@H]2CCN(C(=O)/C=C\CN3CCCCC3)[C@@H]12	–	inactive: 5.45%
C/C(CC(=O)Nc1ccc(OCc2ccccc2)cc1)=N\NC(=O)C(=O)Nc1cccc(C)c1	inconclusive [inhibitor, single point]	–
CN(Cc1ccccc1)C(=O)c1[nH]cnc1C(=O)N[C@@H](Cc1ccccc1)C(=O)OCc1ccccc1	active: 10 µM	–
COc1ccc(-c2cn[nH]c2-c2ccc(OCc3ccccc3F)cc2O)cc1OC	inconclusive [inhibitor, single point]	–
Cc1c(C(=O)NC2CCCc3ccccc32)oc2ccc(S(=O)(=O)N3CCCC3)cc12 (stereo unspecified)	–	inactive: -7.27%
Clc1ccc(OCCn2c(-c3ccco3)nc3ccccc32)cc1	inconclusive [inhibitor, single point]	–
